Read counts are not given, so values of variants with three or more changes are uncertain.

First the molecules themselves.
B1: OR4K15 (parent)
chain: GUUAACGGUCAUAGGCCAUGGAAACUAGGAGCACCAUUUCGCUGCCAGUGAAGAAAUGAACAAAGAAAAUCUGGGCCAGGCAGGCAUCAAAAGAAAUAGUCUUGCGCUCAACCAGAAAGUCUGUAAUCAUUUUAAGGGUA

Variants of B1 are the subject of this data set. Briefly: self-cleavage, relative activity (ratio to wild type); higher = more cleavage; in vitro, sequencing; the parent is a self-cleaving ribozyme.
As for GUUAACGGUCAUGGGCCAUGGAAACUAGGAGCACCAUUUCGCUGCCAGUGAAGAAAUGAACAAAGAAAGUCUGGGCCAGGCAGGCAUCAAAAGAAAUAGUCUUGCGCUCAACCAGAAAGCCUGUAAUCAUUUUAAAGGUA, the self-cleavage is 0.74.

As to GUUAACGGUCAUGGGCCAUGGAAACUAGGAGCACCAUUUCGCUGCCAGUGAAGAAAUGAACAAAGAAAAUCUGGGCCAGGCAGGCGUCAAAAGAAAUAGUCUUGCGCUCAACCAGAAAGUCUGUAACCAUUUUAAGGGUA, the self-cleavage was 1.36. To GUUAACGGUCAUGGGCCAUGGAAACUAGGAGCACCAUUUCGCUGCCAGUGAAGAAAUGAGCAAAGAGAAUCUGGGCCAGGCAGGCAUCAAAAGAAAUAGUCUUGCGCUCAACCAGAAAGUCUGUAAUCAUUUUAAGGGUA belongs 0; to GUUAACGGUCAUGGGCCAUGGAAACUAGGAGCACCAUUUCGCUGCCAGUGAGGAAACGAACAAAGAAAAUCUGGGCCAGGCAGGCAUCAAAAGAAAUAGUCUUGCGCUCAACCAGAAAGUCUGUAAUCAUUUUAAGGGUA, 0.43. GUUAACGGUCAUGGGCCAUGGAAACUAGGAGCACCAUUUCGCUGCCAGUGAAGAAAUGAACAAGGAAAAUCUGGGGCAGGCAGGCAUCUAAAGAAAUAGUCUUGCGCUCAACCAGAAAGUUUGUAAUCAUUUUAAGGGUA: the self-cleavage was 0.35. To GUUAACGGUCAUGGGCCAUGGAAACUAGGAGCACCAUUUCGCAGCCUGUGAAGAAAUGAACAAAGAAAAUCUGGGCCAGGCAGGCAUCAAAAGAAAUAGUCUUGCGCUCAACCAGAAAGUCUGUAAUCAUUUUAAGGGUA belongs 1. To GUUAACGGUCAUGGGCCAUGGAAACUAGGAGCACCAUAUCGCUGCCAGUGAAGAAAUGAACAAAGAAAAUCUGGGCCAGGCAGGCAUCAAUAGAAAUAGUCUUGCGCUCAACCAGAAAGUCUGCAAUCAUUUUAAGGGUA belongs 0.44; to GUUAACGGUCAUGGGCCAUGGAAACUAGGAGCACCAUUUCGCUGCCAGUGAAGAGAUGAACAGAGAAAAUCUGGGCCAGGCAGGCAUCAAAAGAAAUAGUCUUGCGCCCAACCAGAAAGUCUGUAAUCACUUUAAGGGUA, 0.02. Turning to GUUAACGGUCAUGGGCCACGGAAGCUAGGAGCACCAUUUCGCUGCCAGUGAAGAAGUGAACAAAGAAAAUCUGGGCCAGGCAGGCAUCAAAAGAAAUAGUCUUGCGCUCAACCGGAAAGUCUGUAAUCAUUUUAAGGGUA, the self-cleavage is 0.78.

As to GUUAACGGUCAUGGGCCAUGGAAACUAGGAGCACCAUUUCGCUGCCAGUGAAGAAAUGAACAAAGAAAAUCUGGGCCAGGCAGGCAUCAUAAGAAAUAGACUUGCGCUCAACCAGAAAGUCUGUAAUCAUUUUAAGGGUA, the self-cleavage was determined as 1.18. For GUUAACGGUCAUGGGCCAUGGAAACUAGGAGCACCAUUUUGCUGCCAGUGAAGAAAUGAACAAAGAAAAUCUGGGCCUGGCAGGCGUCAAAAGAAGUAGUCUUGCGCUCAACCAGAAAGUCCGUAAUCAUUUUAAGGGUA, the self-cleavage is 0.07.

Regarding GUUAACGGUCAUGGGCCAUGGAAACUAGGAGCACCACUUCGCUGCCAGUGAAGAAAUGAACAAAGAAAAUCAGGGCCAGGCAGGCGCCAAAAGAAAUAGUCUUGCGCUCAACCAGAAAGUCUGUAAUCAUCUUAAGGGUA, the self-cleavage is 0.11. As to GUUAACGGUCAUGGGCCAUGGAAACAAGGAGCACCAUUUCGCUGCCAGUGAAGAAAUGAACAAAGAAAAUCUGGGCCAGGCAGGCAUCAAAAGAAAUAGUCAUGCGCUCAACCAGAAAGUCUGUAAUCAUUUUAAGGGUA, the self-cleavage came out at 1.27. The result for GUUAACGGUCAUGGGCCAUGGAAACUAGGAGCACAAUUUCGCUGCCAGAGAAGUAAUGAACAAAGAAAAUCUGGGCCAGGCAGGCAUCAAAAGAAAUAGUCUUGCGCUCAACCAGAAAGUCUGUAAUCAUUUUAAGGGUA reads 1.43; that for GUUAACGGUCAUGGGCCAUGGAAACUAGGAGCACCAUUUCGCUGCCAGUGAAGAAAUGAACAAAGAAAAUCUGGGCCAGGCAGGCAUCAAGAGAAAUAGUCUUGCGCUCAACCAGGAAGUCUGUAAUCAUUUUAAGGGUA, 1. To GUUAACGGUCAUGGGCCAUGGAAACUAGGAGCACCAUUUCGCUGCCAGUGGAGAAAUGAACAAAGAAAAUCUGGGCCAGGCAGGCAUCAAAAGAAAUAGUCUUGCGCUCAACCAGAAAGUCUGUAAUCAUUCUAAGGGUA belongs 0.66. On to GUUAACGGUCAUGGGCCACGGAAACUAGGAGCACCAUUCCGCUGCCAGUGAAGAAAUGAACGAAGAAAACCUGGGCCAGGCAGGCAUGAAAAGAAACAGUCUUGCGCUCGACCAGAAAGUCUGUAAUCAUCUUAAGGGUA, for which the self-cleavage was determined as 0.01. To GUUAACGGUCAUGGGCCAUGAAAACUAGGAGCACCACUUCGCUGCCAGUGAAGAAAUGAACAAAGAAAAUCUGGGCCAGGCAGGCAUCAAAAGAAAUAGUCCUGCGCUCAACCGGAAAGUCUGUAAUCAUUUUAAGGGUA belongs 1.14; to GUUAACGGUCAUGGGCCAUGGAAACUAGGAGCACCAUUUCGCUGCCAGUGAAGAAAUGAACAAAGAAAAUCUGGGCCUGGCAGGCAUCAAAAGAAAUAGUCUUGCGCUCAACCAGGAAGUCUGUAAUCAUUCUAAGGGUA, 0; to GUUAACGGUCAUGGGCCAUGGAAACUAGGAGCACCACUUCGCUGCCAGUGAAGAAAUGAGCAAAGAAAAUCUGGGCCAGGCAGGCAUCAAAAGAAAUAGUCUUGCGCUCAACCAGAAAGUCUGUAAUCAUUUUAAGGGUA, 0.84.

As to GUUAACGGUCAUGGGCCAUGGAAACUAGGAGCACCAUUUCGCUGCCAGUGAAGAAAUGAACAGAGGAAAUCCGGGCCAGGCAGGCAUCAAAAGAAGUAGUCUUGCGCCCAACCAGAAAGUCUGUAAUCAUUUUAAGGGUA, the self-cleavage was determined as 0.05. To GUUAACGGUCAUGGGCCAUGGAAACUAGGAGCACCAUUUCGCUGCCAGUGAAGAAAUGAACAAAGAGAAUCUGGGCCAGGCAGGCAUCAAAUGAAAUAGUCUUGCGCUCAACCAGAAAGUCUGUAAUCAUUUUAAGGGUA belongs 1.28; to GUUAACGGUCAUGGGCCAUGGAAACUAGGAGUACCAUUUCGCUGCCAGUGAAGAAAGGAACAAAGAAAAUCUGGGCCAGGCAGGCGUCAAAAGAAGUAGUCUUGCGCUCAACCAGAAAGUCUGUAAUCAUUUUAAGGGUA, 0.42. As to GUUAACGGUCAUGGGCCAUGGAAACUAGGAGCACCACUUCGCUGCCAGUGAAGAAAUGAACAGAGAGAAUCUGGGCCUGGCAGGCGUCAAAAGAAAUAGUCGUGCGCUCAACCAGAAAGUCUGUAAUCACUUUAAGGGUA, the self-cleavage turned out to be 0.11. The result for GUUAACGGUCAUGGGCCAUGGAAACUAGGAGCACCAUUUCGCUGCCAGUGAAGAAAUGAACAAAGAAAAUCUGGGCCAGGCAGGCAUCAAAGGAAAUAGUCUUGCGCUCAACCAGUAAGUCUGUAAUCAUUUUAAGGGUA reads 0.08. Regarding GUUAACGGUCAUGGGCCAUGGAAACUAGGAGCACCAUUUCGCUGCCAGUGAAGAAAUGAACAAAGAAAAUCUGGGCCAGGCGGGCAUCAAAAGAGGUAGUCUUGCGCCCAACCAGGAAGUCUGUAAUCAUUUUAAGGGUA, the self-cleavage turned out to be 0.05. The result for GUUAACGGUCAUGGGCCAUGGAAACUAGGAGCACCAUUUCGCUGCCAGUGAAGAUAUGAACAAGGAAAAUCUGGGCCAGGCAGGCAUCAAGAGAAAUAGUCUUGCGCUCAACCAGAAAGUCUGUAAUCAUUUUAAGGGUA reads 0.41. Regarding GUUAACGGUCAUGGGCCAUGGAAACUAGGAGCACCAUUUCGCUGCCAGUGAGGAAAUGAGCAAAGAAAAUCUGGGCCAGGCAGGCAUCAAAAGAAAUAGUCUCGCGCUCAACCAGAAAGUCUGUAAUCAUCUUAAGGGUA, the self-cleavage was found to be 0.5. To GUUAACGGUCAUGGGCCAUGGAAACAAGGAGCACCAUUCCGCUGCCAGUGAAGAAAUGAACAAAGAAAAUCUGGGCCAGGCAGGCAUCAAAAGAAAUAGUCUUGCGCUCAACCAGAAAGCCUGUAGUCAUUUUAAGGGUA belongs 0.52; to GUUAACGGUCAUGGGCCAUGGAAACUAGGAGCACCAUUUCGCUGCCAGUGAAGAAAUGAACAAAGAAAAUCUGGGCCAGGCAGGCAUCAAAAGAAAUAGUCUUGCACUCAACCAGAAAGUCUGUAGUCAUUUUAAGGGUA, 0.03. The result for GUUAACGGUCAUGGGCCAUGGAAACUAGGAGCACCAUUUCGCUGCCAGUGAAGAAAUGAACAAAGCAAAUCUGGGCCAGGCAGGCAUCAAAAGAAAUAGUCUUGCGCUCGACCAGAAAGCCUGUAAUCAUUUUAAGGGUA reads 0.19; that for GUUAACGGUCAUGGGCCAUGGAAACCAGGAGCACCAUUUCGCUGCCAGUGAAGAAAUGAACAAAGAAAAUCUGGGCCAGGCAGGCAUCUAAAGAAACAGUCUUGCGCUCAACCAGAAAGUCUGUAAUCAUUUUAAGGGUA, 0.98. Regarding GUUAACGGUCAUGGGCCAUGGAAACUAGGAGCACCAUUUCGCUGCCAGUGAAGAAAUGAACAGGGAAAAUCUGGGCCAGGCAGGCAUCGAAAGAAAUAGUCUUGCGCUCAACCAGAAAGUCUGUAAUCAUUUUAAGGGUA, the self-cleavage is 0.59. The result for GUUAACGGUCAUGGGCCAUGGAAACUAGGAGCACCAUUUUGCGGCCAGUGACGAAAUGAACAAAGAAAAUCUGGGCCAGGCAGGCAUCAAAAGAAAUAGUCUUGCGCUCAACCAGAAAGUCUGUAAUCAUUUUAAGGGUA reads 0.69; that for GUUAACGGUCAUGGGCCAUGGAAACUAGGAACACCAUUUCGCUGCCAGUGAAGAAGUGAACAAAGAAAAUCUGGGCCAGGCAGGCAUCAAAAGAAAUAGUCUUGCGCUCAACCAGAAAGUCUGUAAUCAUUUUAAGGGUA, 1.16.

In the case of GUUAACGGUCAUGGGCGAUGGAAACUAGGAGCACCAUUUCGCUGCCAGUGUAGAAAUGAACAAAGAAAAUCUGGGCCAGGCAGGCAUCAAAAGAAAUAGUCUUGCGCUCAACCAGAAAGUCUGUAAUCAUUUUAAGGGUA, the self-cleavage was 1. The result for GUUAACGGUCAUGGGCCAUGGAAACUAGGAGCACCAUUUCGCUGCCAGUGAGGAAAUGAACAAUGAAGAUCUGGGCCAGGCAGGCAUCGAAAGAAAUAGUCUUACGCUCAACCAGAAAGUCUGUAAUCAUUUUAAGGGUA reads 0.09.

Regarding GUUAACGGUCAUGGGCCAUGGAAACUAGGAGCACCAUUUCGCUGCCAGUGAAGAAAUGAACAAAGAAAAUCUGGGCCAGGCUGGCAUCAAAAGAAAUAGUCUUGCGCUCAACCAGAUAGUCUGUAAUCAUUUUAAGGGUA, the self-cleavage was 0. The result for GUUAACGGUCAUGGGCCAUGGAAACUAGGAGCACCAUUUCGCUGCCAGUGAAGAAAUGAACGAAGAAAAUCCGGGCCAGGCAGGCAUCAAAAGAAUUAGUCUUGCGCUCAACCAGAAAGUCUGUAAUCAUUUUAAGGGUA reads 1.09; that for GUUAACGGUCAUGGGCCAUGGAAACUAGGAGCACCAUUUCGCUGCCAGUGAAGAAAUGAACAAAGAAAAUCUGGGCCAGGCAGGCAUCAAAAGAAAUAGUCUUGCGCUCAGCCAGAAAGUCAGUAAUCAUUUUAAGGGUA, 0.06. The result for GUUAACGGUCAUGGGCCAUGGAAACUAGGAGCACCAUUUCACUGCCAGUGAAGAAAUGAACUGAGAAAAUCUGGGCCAGGCAGGCAUCAAAAGAAAUAGUCUUGCGCUCAACCUGAAAGUCUGUAAUCAUUUUAAGGGUA reads 0.16.
